Experimental data taken from paper PMC10864363.
Results are given in words; binding and its absence hold for the method and conditions named. In cells and extracts the contact can be indirect. Some results given as binding are weak or reduced against the parent protein; the word gives no strength.

Chains of the proteins cited; added tags and fusions are not shown. Residues count along the entry.
UniProt Q9Z0W1, residues 32-427: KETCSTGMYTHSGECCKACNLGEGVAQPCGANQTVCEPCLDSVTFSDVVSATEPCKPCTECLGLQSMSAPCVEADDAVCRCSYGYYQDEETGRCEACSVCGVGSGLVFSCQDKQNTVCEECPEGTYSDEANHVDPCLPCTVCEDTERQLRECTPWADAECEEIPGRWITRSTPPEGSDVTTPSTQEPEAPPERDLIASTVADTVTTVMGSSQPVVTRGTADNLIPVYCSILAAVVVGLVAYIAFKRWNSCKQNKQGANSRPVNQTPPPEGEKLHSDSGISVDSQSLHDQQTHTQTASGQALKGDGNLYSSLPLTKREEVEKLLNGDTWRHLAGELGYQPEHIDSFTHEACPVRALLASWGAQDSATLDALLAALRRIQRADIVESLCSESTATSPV
UniProt Q3UFB7, residues 34-799: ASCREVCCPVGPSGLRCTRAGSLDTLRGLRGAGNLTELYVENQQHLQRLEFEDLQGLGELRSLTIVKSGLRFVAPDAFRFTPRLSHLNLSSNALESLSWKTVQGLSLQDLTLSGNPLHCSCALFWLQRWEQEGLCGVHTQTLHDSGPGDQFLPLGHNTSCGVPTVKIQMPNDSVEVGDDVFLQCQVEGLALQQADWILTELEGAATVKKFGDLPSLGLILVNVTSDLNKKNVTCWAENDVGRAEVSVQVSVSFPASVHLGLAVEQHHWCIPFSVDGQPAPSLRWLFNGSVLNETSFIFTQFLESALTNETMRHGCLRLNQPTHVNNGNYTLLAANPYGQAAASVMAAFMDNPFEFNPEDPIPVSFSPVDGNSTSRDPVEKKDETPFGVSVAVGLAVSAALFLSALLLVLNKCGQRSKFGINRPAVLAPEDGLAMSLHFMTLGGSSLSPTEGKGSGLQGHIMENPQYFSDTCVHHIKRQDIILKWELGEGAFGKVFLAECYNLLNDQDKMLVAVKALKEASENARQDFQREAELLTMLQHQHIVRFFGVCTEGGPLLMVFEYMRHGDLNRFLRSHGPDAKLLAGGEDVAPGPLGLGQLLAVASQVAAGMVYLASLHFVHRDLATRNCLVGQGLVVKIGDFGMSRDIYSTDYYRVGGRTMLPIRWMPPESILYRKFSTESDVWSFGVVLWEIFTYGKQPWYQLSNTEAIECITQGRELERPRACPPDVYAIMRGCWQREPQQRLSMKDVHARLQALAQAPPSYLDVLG
UniProt Q6VNS1, residues 32-825: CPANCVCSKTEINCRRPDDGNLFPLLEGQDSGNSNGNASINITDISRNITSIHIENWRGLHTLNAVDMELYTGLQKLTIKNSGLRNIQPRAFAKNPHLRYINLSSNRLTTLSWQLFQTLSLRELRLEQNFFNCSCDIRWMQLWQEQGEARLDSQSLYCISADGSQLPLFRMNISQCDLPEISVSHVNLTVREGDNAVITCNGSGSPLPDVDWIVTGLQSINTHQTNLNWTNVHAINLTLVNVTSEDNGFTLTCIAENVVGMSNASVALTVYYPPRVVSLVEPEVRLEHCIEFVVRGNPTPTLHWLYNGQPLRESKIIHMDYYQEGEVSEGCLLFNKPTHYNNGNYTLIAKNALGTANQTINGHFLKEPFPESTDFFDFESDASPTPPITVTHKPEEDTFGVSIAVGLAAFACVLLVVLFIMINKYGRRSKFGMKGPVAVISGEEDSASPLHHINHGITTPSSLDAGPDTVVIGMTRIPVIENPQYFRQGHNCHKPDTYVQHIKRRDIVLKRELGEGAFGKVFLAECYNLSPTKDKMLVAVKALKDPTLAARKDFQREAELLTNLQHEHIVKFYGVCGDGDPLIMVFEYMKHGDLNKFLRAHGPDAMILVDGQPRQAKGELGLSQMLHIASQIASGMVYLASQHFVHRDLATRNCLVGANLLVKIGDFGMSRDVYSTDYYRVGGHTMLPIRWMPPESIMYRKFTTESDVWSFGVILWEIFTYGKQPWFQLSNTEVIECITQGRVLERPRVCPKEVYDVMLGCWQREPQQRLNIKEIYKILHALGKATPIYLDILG
UniProt P14873: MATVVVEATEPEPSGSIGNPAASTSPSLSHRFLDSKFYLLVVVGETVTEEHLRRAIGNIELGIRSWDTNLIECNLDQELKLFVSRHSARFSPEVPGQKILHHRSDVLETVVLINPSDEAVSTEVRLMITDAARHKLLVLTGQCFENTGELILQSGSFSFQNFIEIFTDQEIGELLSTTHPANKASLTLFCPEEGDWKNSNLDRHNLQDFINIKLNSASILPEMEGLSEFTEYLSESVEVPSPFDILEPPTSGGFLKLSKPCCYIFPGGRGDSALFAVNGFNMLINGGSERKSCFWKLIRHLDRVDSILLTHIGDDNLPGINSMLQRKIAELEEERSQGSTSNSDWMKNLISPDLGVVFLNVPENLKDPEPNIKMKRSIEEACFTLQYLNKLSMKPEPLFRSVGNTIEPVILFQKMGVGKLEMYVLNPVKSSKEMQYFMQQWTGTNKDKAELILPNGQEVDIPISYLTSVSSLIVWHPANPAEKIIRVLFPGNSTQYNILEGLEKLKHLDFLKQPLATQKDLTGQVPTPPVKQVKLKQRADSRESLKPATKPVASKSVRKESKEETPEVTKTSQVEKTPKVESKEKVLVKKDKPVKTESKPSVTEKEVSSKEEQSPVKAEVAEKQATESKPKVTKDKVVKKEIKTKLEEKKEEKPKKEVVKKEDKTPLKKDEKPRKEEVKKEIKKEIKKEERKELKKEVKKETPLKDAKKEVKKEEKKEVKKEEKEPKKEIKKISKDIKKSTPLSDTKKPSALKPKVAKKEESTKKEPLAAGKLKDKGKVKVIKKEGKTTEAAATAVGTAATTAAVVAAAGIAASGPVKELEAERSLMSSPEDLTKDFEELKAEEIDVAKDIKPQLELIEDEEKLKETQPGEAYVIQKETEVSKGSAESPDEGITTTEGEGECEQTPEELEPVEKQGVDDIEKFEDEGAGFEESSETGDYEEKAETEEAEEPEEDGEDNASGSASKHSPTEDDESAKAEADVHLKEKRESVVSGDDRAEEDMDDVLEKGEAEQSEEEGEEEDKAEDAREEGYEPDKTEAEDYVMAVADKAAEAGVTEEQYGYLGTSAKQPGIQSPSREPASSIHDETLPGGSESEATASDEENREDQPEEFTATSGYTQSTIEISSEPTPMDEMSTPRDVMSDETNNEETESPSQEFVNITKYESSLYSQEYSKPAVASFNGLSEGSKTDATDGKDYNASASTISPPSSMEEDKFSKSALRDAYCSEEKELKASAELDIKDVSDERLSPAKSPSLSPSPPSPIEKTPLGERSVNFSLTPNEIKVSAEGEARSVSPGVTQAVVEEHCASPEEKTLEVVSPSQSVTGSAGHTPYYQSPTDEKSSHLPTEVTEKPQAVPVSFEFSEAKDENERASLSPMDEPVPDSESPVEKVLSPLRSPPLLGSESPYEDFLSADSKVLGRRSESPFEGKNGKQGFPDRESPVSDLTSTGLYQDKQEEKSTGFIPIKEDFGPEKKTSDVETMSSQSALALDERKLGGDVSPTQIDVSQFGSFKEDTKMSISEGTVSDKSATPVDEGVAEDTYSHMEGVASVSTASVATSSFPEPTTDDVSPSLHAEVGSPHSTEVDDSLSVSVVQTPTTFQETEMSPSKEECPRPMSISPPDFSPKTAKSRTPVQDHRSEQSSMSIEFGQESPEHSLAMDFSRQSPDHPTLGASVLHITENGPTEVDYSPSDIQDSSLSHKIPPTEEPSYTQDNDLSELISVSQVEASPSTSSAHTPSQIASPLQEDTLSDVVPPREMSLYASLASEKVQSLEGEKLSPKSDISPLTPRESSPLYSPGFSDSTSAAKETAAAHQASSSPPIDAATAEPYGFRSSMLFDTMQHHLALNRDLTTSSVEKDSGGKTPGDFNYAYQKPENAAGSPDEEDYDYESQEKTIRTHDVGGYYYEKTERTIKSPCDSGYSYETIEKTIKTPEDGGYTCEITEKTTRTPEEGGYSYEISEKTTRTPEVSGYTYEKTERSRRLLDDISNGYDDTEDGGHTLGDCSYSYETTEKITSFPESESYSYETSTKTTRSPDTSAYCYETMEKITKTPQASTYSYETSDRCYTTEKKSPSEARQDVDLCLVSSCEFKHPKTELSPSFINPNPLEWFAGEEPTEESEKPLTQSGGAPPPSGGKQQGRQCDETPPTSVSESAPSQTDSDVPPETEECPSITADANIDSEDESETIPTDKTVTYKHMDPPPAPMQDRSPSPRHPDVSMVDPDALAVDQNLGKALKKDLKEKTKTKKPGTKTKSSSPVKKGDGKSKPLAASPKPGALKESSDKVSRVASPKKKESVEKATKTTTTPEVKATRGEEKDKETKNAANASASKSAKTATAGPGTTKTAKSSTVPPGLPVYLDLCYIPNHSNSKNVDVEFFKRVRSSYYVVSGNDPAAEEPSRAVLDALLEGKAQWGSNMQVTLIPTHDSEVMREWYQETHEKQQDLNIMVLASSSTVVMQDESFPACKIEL
UniProt P15209, residues 32-821: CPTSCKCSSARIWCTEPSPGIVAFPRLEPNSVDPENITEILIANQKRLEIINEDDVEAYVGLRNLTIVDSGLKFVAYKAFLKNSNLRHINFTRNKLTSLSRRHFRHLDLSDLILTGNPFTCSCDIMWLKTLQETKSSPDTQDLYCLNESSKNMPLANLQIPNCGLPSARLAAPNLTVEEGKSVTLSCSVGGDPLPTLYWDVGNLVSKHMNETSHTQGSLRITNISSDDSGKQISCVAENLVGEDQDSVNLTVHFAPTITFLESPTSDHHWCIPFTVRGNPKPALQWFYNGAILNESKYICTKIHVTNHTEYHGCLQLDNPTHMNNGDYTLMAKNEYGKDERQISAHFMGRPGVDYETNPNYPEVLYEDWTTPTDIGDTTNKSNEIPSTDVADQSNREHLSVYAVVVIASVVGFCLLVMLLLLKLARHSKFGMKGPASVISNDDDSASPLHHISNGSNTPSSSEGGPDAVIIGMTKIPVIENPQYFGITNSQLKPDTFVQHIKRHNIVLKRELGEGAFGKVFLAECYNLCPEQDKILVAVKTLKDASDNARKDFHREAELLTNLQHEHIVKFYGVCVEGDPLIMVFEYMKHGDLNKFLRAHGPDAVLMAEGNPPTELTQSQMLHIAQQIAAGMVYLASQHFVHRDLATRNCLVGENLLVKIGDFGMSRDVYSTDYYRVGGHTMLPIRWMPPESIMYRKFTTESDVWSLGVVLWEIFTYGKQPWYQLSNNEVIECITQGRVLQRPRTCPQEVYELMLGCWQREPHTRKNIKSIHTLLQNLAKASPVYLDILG
UniProt Q2MHE5: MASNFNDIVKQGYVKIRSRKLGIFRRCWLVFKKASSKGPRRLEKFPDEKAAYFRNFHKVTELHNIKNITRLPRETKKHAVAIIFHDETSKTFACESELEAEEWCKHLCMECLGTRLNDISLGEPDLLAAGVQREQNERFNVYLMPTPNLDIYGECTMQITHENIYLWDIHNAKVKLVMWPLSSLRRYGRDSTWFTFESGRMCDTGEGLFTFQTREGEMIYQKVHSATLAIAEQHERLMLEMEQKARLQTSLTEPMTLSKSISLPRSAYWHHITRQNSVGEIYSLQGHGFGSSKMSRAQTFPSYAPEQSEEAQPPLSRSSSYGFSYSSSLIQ

Columns and labels:
Assay in all cases: co-IP; P3 mouse sciatic nerve lysate; immunoprecipitation with TrkA, TrkB, TrkC, RET, p75NTR and MAP1B antibodies or isotype control antibodies and protein G Sepharose, overnight at 4 °C; four washes with lysis buffer; Western blot with anti-DOK6
[1] = target: p75^NTR (mouse (endogenous in P3 sciatic nerve)) (UniProt Q9Z0W1)
[2] = target: TrkA (mouse (endogenous in P3 sciatic nerve)) (UniProt Q3UFB7)
[3] = target: TrkC (mouse (endogenous in P3 sciatic nerve)) (UniProt Q6VNS1)
[4] = target: Ret (mouse (endogenous in P3 sciatic nerve)) (UniProt P35546)
[5] = target: microtubule-associated protein 1B (MAP1B/MAP5) (mouse (endogenous in E18.5 brain and P3 sciatic nerve)) (UniProt P14873)
[6] = target: TrkB (mouse (endogenous in P3 sciatic nerve)) (UniProt P15209)

With “Docking protein 6 (DOK6) (from UniProt Q2MHE5 1-331)” the binding [1] was “binds”, the binding [2] was “no binding” and the binding [3] was “binds”. For the same substance, the binding [4] was “binds”, the binding [5] was “binds” and the binding [6] was “no binding”.
